According to the supplement of paper PMC3334620:
Over roughly 33,000 sequences, “E-score (-0.5 to 0.5)” has its median near -0.017; the highest 2% begin near 0.3. Some of the results follow.

Target: T1, Sut1 (UniProt P53032)
T1 sequence: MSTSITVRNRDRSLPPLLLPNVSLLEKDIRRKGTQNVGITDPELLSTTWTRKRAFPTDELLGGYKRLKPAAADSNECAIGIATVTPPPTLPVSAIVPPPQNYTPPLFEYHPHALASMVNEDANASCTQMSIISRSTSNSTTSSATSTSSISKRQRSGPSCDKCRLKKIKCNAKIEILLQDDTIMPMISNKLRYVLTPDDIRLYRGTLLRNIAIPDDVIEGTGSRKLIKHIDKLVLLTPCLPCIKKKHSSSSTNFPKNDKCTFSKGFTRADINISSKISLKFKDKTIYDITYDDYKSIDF
Assay: PBM E-score (8-mer binding enrichment) (E-score (-0.5 to 0.5)); higher = stronger / more preferred TF binding; most listed sequences are background and not binding sites
Conditions: protein concentration: 200 nM; construct: GST-full length
In short: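 Full-length yeast transcription factors or their DNA-binding domains, GST-tagged and expressed with PURExpress, were applied at about 100-200 nM to universal all-10-mer Agilent arrays. These arrays had been made double-stranded by primer extension on fresh or once-stripped slides. Detection used fluorescent anti-GST, normalisation used masliner, and E-scores for ungapped eight-base words pooled with reverse complements came from the Universal PBM Analysis Suite.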

Sequence	PBM E-score
AAATCTAG	0.00795
ATGCCAAC	0.0406
CAACGATA	0.0729
CAGCACAG	-0.0827
AGATCCGC	0.00517
ATTATAAC	0.0928
CTGGGCCA	-0.256
CCATGCCC	-0.326
CTCACGCA	0.00102
CCTGGATC	-0.26
CTGCGCAG	-0.112
ATCTTCTC	0.167
CGAACCTA	0.12
ACCCGCAA	-0.197
ACTTGTTA	0.16
CGTACAAC	0.068
ATGCACGC	0.00659
CAAGAAAC	0.215
ACATCAGT	0.00838
CGGTGTTA	0.163
ATGCGGGC	-0.135
CCCCCCGA	-0.258
ATGGTCCG	0.203
ACATTTCG	0.171
GTCCTGCA	-0.155

Sequence	PBM E-score
AATAAACT	0.221
GACCTATC	-0.0265
GCCCTAGA	-0.103
CATGAGCG	-0.278
GAAAGTTA	0.149
AAGCACGC	-0.122
ATGAGTAG	0.161
CGAGACAG	-0.039
ACGTTGTC	-0.211
GGTTGGAA	-0.162
ACCAGGCT	-0.232
GGCCACTA	-0.179
CAACCCAA	0.00017
GCCCCGTA	-0.0818
TGCCCACA	-0.207
AGTCGCAG	-0.0966
TCCTACAA	0.101
ATTCCATA	0.138
CGCCCGAA	-0.101
AAACTCAG	-0.0771
CCACCATC	-0.164
CCTCAGTC	-0.145
AGGGCGCG	-0.163
AGCAATTC	0.156
CTTCTTAA	0.173

Sequence	PBM E-score
AAATGCTC	0.0867
CTTCAACA	0.0834
GATGAAAA	0.131
AGGAGCCC	-0.164
AAGTCGAC	0.13
AACGGTCG	-0.192
CCTCGGCG	-0.0382
TGGGCTAA	-0.0377
AAAAAAAG	0.199
AAAACACA	0.0925
CACCGCGA	-0.0965
CAACGGTG	-0.269
ATGCAGCA	-0.134
AAAATTTC	0.189
ACGTCAAT	-0.135
AGATTGGG	0.00543
CCTTCACC	-0.231
TGAATTAA	0.13
ACGGGGTG	-0.143
CAACTATA	0.132
ACCGTCCA	-0.00866
AGGAATTC	-0.203
AAAACGCT	0.0462
ACGAGCCG	-0.146
CGACGGCC	-0.227

Sequence	PBM E-score
ACAAGCTA	-0.192
GATCGCCC	-0.259
ACTAGGTC	-0.0189
TCTTATCA	0.269
ATTACCCA	0.00533
AATGTTTA	0.225
CGATTTAC	0.108
AAAGTGCA	0.0236
AAAAAGGC	0.0807
ACCCATAC	-0.173
ACTGCCCT	-0.0307
ACACTGCG	-0.0541
CAAACGGA	0.302
AAGGAGGG	-0.201
CTACCTCC	-0.0796
AATGGTAT	0.0823
AGACACGC	-0.129
GTAACTCA	-0.112
GAGACGCC	-0.0839
AGCCCAGG	-0.337
GACTTGTA	0.0238
TCCAGACA	-0.13
CCTCCTCA	-0.245
AACTGAGT	0.0495
ACAGCTGT	-0.0756

Sequence	PBM E-score
TAGCGAAA	0.135
TAGCTACA	-0.0801
TCGGCCGA	0.323
ATCAAAGC	0.108
ATGTGATG	-0.0614
GGAGAAAC	0.191
TCACCGGA	0.397
CCCCTTTC	-0.152
CCCCACAC	-0.238
CAAGAGAC	-0.24
ATCGCTGA	-0.0674
CGCGGCGC	-0.0595
ACATAGAT	0.131
ACAACCGC	0.126
TTCAGCAA	0.00636
CCCCAATC	-0.327
TATCGGCA	0.0647
ACTCGGAA	0.323
CGGGAGTA	0.17
GCAACAGC	-0.203
ATTTCGAC	0.0327
ACCGCTCA	-0.104
GGGCCCAC	-0.00463
CGTCGCTC	-0.00803
AATTTGAT	0.152

Sequence	PBM E-score
AAGAGCGA	-0.101
GAAACTCA	0.0707
GCAATCCA	0.0268
ACCAAATG	-0.0167
CGAAACAA	0.159
ACCCTAGT	-0.199
GTCATGAC	0.0478
CGACTGCG	0.0732
GGGGTGCA	-0.131
ACCATATA	0.263
AATCTCGA	0.0731
CGTGGCCC	-0.256
CGGATAAG	0.0887
GCTCCAGC	-0.0983
GGGAGCAA	-0.147
AGTCGTAA	0.107
GCCACGGC	-0.182
GAAGCTCC	0.35
CATACAGC	-0.216
CCCAAGCA	-0.165
GGGTACAC	-0.157
GCGCGTGA	-0.0155
AAAACCAC	0.0541
GACGCTTA	-0.155
ACACTAGG	0.018

Sequence	PBM E-score
CTCCATAC	0.0459
GGCACGGA	0.175
CTCTTGTA	0.0891
CCTCTCTA	-0.295
GGATAATA	0.159
CTAACATA	0.211
GTCGCAAC	-0.112
AAGGTGAC	-0.141
AAAGATTC	0.119
CGCGCCAG	-0.0599
GGCGGGAC	-0.211
ACCTCGTC	0.0103
GTCCTTTA	-0.00718
ACGTAGAT	-0.0336
AGGACCAC	-0.0917
GATTCCAC	0.15
GGCTTCGA	-0.0873
CACAAAGA	-0.00788
GGTGGAAA	0.0136
GTGCCTCA	-0.178
ACTGTCGC	-0.0793
AAGGACAC	0.0727
